# From the supplement of paper PMC11417369
# ± gives the standard deviation of the averaged measurements. This is one part of the list.
# System: PfAP2-G AP2 domain (GST-tagged)
# Test: gcPBM binding intensity (ln(normalized median fluorescence intensity)); higher = stronger DNA binding
# Summary of the method: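 DNA-binding domains from P. falciparum, fused to GST and produced in E. coli, were put on an Agilent 4 × 180k double-stranded probe array for 1 h in 1× PBS holding 1% milk, 0.2 mg/ml BSA, 0.5% salmon testes DNA and 0.03% Triton X-100. Probes were primer-extended, 36 bp long and drawn from intergenic genomic regions, with negative controls included. After Alexa488 anti-GST antibody detection and a 488 nm scan, binding intensity was set as the highest Masliner-normalised natural-log median intensity across replicate spots of either probe orientation.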
row,Sequence,gcPBM binding intensity (ln)
1,AAATTATGAACATATTGTACATATATATATATATAT [XGTACX_site8269],10.8 ± 0.48
2,ATTATATAAATTATATGTACGTATTTTTTTTTTTTT [XGTACX_site1908],11.5 ± 0.83
3,TGTTTTTAAATTTAAATCAAAAAATAAAATAAAATA [GTGCAC_negctrl_site355],9.96 ± 0.22
4,ATAATTATATATATATGTACATATTATATATATATA [XGTACX_site4526],11.2 ± 0.77
5,CATAAATACATACATACACACATATTTATATTTATA [CACACA_site7071],9.95 ± 0.057
6,AAAAGAAAAATGTCATATGATATCATATATTTTATA [GTGCAC_negctrl_site185],9.66 ± 0.028
7,AAAAATATGTGATAATGTACTTTTCATTTTTATTTT [XGTACX_site8544],11 ± 0.6
8,AAGATAACAAGTAATCAATCTAATTATTAATTATAT [CACACA_negctrl_site1713],9.41 ± 0.2
9,ATATATTTAAATAAATGTACAAATCATAAATTCAAG [XGTACX_site1417],10.8 ± 0.56
10,AATATAATATAATGCACACATAAACAAAAAAAAAAT [CACACA_site1304],10.1 ± 0.35
11,TTCATTTGAAAACTGTGTACTTAAAAATATACATAT [XGTACX_site176],11.4 ± 0.91
12,TATATATATTGTGTATGTACATATATATAAATATTG [XGTACX_site433],11.2 ± 0.69
13,TTTTTATTTTATAATATATTCCTTTTCCTTTCTTTC [CACACA_negctrl_site245],9.62 ± 0.11
14,TACATATATATAAATACACACACACCCACCTTATAA [CACACA_site9346],10.5 ± 0.39
15,TTATTAGAAAAATGCACACCAAAAAAAAAAAAAAAA [CACACA_site2522],10 ± 0.57
16,ATACATATACACATATGTACATATGAAAAGAAAAAT [XGTACX_site6445],11.1 ± 0.64
17,AAATTTATTATGAACATACACACAAAAAAAAAAAGT [CACACA_site2053],10.4 ± 0.35
18,CTATATGTATAAAGTTGTACAGTTTTTCAAAGTTAA [XGTACX_site6652],11.5 ± 0.93
19,ATATATATATATATATGTACATATGTATGTGTTTGT [XGTACX_site397],11 ± 0.59
20,TATACTCATTTTTATACACACTTGTTTTATAAAACG [CACACA_site4561],10.2 ± 0.11
21,TTTTTTCTAATATCTTTGCCTTTTTCTTTATTTATT [CACACA_negctrl_site1053],9.6 ± 0.26
22,TATATATTTTATTATTGTACGAATTATTTATTTTAC [XGTACX_site8105],11.1 ± 0.71
23,TACATCATCTATAAGGTGCATTTTAGTTCTATTAAA,10.2 ± 0.47

row,Sequence,gcPBM binding intensity (ln)
1,ATGGACATTTTATAAATCACAATGGATATTTTATAA [CACACA_negctrl_site1830],10.2 ± 0.32
2,TATTGAAACCCACACGAACACACGTATTTCATAAAC [CACACA_site251],10.4 ± 0.32
3,TATAAAAAGCATAACACACACATGTCAATATAAATA [CACACA_site6648],10 ± 0.071
4,TACTTTTATATAGAAAGTACATACAATTCATAGAAT [XGTACX_site2182],11.1 ± 0.72
5,TTTTTTTTTTTTTTGTGTACATATAATGCACATTAT [XGTACX_site6505],11.4 ± 1
6,AAAAAATAAATAAATACACACAAATATATATATATA [CACACA_site2543],10.3 ± 0.59
7,TTTTGTAGATATGACTGTACATATTTTATACATAAC [XGTACX_site971],11.3 ± 0.85
8,TGGTAATCCACATACACACACACATACACATATATA [CACACA_site2727],10.4 ± 0.35
9,AAGAAAAAAAAAATTACACACTGCGCAGATACACAA [CACACA_site1289],10.19 ± 0.049
10,TAATATGTATATAAAAGTACAGACGATTATAATTAT [XGTACX_site173],11.3 ± 0.78
11,ATATATATATGTAAGAGTACACAAAAATATGTATGT [XGTACX_site4335],11.6 ± 0.96
12,AAGACAACATAAATATGTACATATATTTATTATTTT [XGTACX_site1792],11.4 ± 0.95
13,AGAATGGATTAGCTAGCACACACAAAAAAAAAAAAA [CACACA_site8995],10.1 ± 0.62
14,ACTAATATTTTATAAAGTACAAATTAATAAAATTCA [XGTACX_site5817],11.1 ± 0.73
15,TATATATATATATTGACACACATGTATTTCAATATT [CACACA_site2832],10.1 ± 0.21
16,CACATACCTATATACACACACAAAATAATAAAATAA [CACACA_site7150],10.2 ± 0.23
17,CTTATATATTGCCCTTCACACACACCCATATATATA [CACACA_site8795],10.4 ± 0.2
18,AAGTATGGAAAGGAATATAAATTAATACTTTCATTG [XGTACX_negctrl_site131],9.88 ± 0.014
19,AGAAATTTACAAATACGTACACACATATATATATAT [XGTACX_site3141],11.9 ± 1.4
20,GAAGATATGTAAAATTGTACATATTATTTTATTTTA [XGTACX_site5302],10.8 ± 0.47
21,AATAAAAATATATCCACACACATATATATATATGTA [CACACA_site576],9.85 ± 0.099
22,ATATGAATATATATATGTACTAATTAGTAGTTTACG [XGTACX_site6273],11.1 ± 0.7
23,TATAAGACATGATATATACACACCTTGTTTTAATTT [CACACA_site2266],9.75 ± 0.16

row,Sequence,gcPBM binding intensity (ln)
1,TTTTTTTTTTCATTCACACAAAAAAAAAAAATTTAT [CACACA_site5921],9.97 ± 0.24
2,TCATAACAACTTTGTGTGCACATAAAACATGTATAT,10.6 ± 0.33
3,AAAGGTTCATAAAAATGTACATAATTATTTACATGT [XGTACX_site2722],11 ± 0.49
4,CAAATCATATATAGCACACAAATTCTTTATTATTAT [CACACA_site2815],9.97 ± 0.16
5,TTTTACACTTTTTTTTGTACACACTAAAAAGATTAA [XGTACX_site8407],11.4 ± 0.89
6,AAAATATATAATATTTGTACATATTGATGGCAACAG [XGTACX_site6454],10.9 ± 0.49
7,CTGATCCACATTTATACACACCTCGGTTTGTAGAGA [CACACA_site4393],9.96
8,TACTATTTAAAATATGAACACACATTATTTGTTTTA [CACACA_site8870],9.865 ± 0.021
9,TAAATTAAAAGACACACACACAAAAAAAAAAAAAAA [CACACA_site7131],9.94 ± 0.49
10,GGAAACTAAAGGAATAAAACTATGGAAATTAATTAA [CACACA_negctrl_site1647],10.025 ± 0.007
11,CACAAAAATAAACACACACACATATATATTTATTAT [CACACA_site5923],9.85 ± 0.14
12,ATTCAAAATTATAGGTGTACGTATTTTTTTTTTTTT [XGTACX_site7177],11.6 ± 0.86
13,ATAATTTCATAATACGTGCACATAATATATAAAAAA,10.6 ± 0.53
14,AGATGATATAATGGCACACAAATATTTTATTATAAA [CACACA_site3553],10.14 ± 0.092
15,TAAATTTATAAATCACGTACATATTTATTTATATTT [XGTACX_site4532],11.2 ± 0.7
16,TAAAATAATAAAACAACACACAAATAGTTAAAATAG [CACACA_site1680],9.99 ± 0.014
17,ATTGACGTCATATAAACATGCACATTTTGGATGTTT [TGCATGCA_site985],10.01 ± 0.042
18,CATATAATAAAAAATGTACACACATAAGAAAATTTA [CACACA_site8943],11.3 ± 0.67
19,TATGTGTATAATAAAAGTACATATATTATTATATAA [XGTACX_site8556],11.3 ± 0.9
20,GTCATATTATTATTACGTACTTAAATATATAATATA [XGTACX_site3405],11.5 ± 1.1
21,AAAAGAAAAAAAAGTACACACATGTATATTAATCGT [CACACA_site2528],11.6 ± 1.1
22,TGTTAACTTAAAAAAATACCTACGGAAAAATCACAA [TGCATGCA_negctrl_site433],9.955 ± 0.064
23,TAAATATAATAAGAACAAACAAAATAGTACAATATA [TGCATGCA_negctrl_site364],11.4 ± 0.65

row,Sequence,gcPBM binding intensity (ln)
1,TTTTTTTTAAATTGTGGTACACAAATTCATATATAT [XGTACX_site8944],11.5 ± 1.1
2,TACAGATACGGACACACACACACACCCAGACAAAAA [CACACA_site4432],11.3 ± 0.92
3,ATATTAAAATATAATCGTACAATTAAATTTTTTTTT [XGTACX_site2739],11 ± 0.57
4,TACAAAATACAAAAATGTACATAAAAATTTATAAAA [XGTACX_site6861],11.2 ± 0.62
5,TAAAATAAGTTAAAAAGTACATAATTATAATAAATA [XGTACX_site8108],11.1 ± 0.67
6,CACAAAAATAAATATAAACACACAATAAATAAATAA [CACACA_site8197],9.965 ± 0.064
7,ATATATATATATATTCCACACACACCCAAAAAAAAA [CACACA_site9215],10.4 ± 0.44
8,TTTGTTTTTATTTACACATGCAAAAAAAAAAAAAAA [TGCATGCA_site655],9.98 ± 0.58
9,TTATAATAGTTAATATGTACATATTTAATAAATAAT [XGTACX_site3183],11.2 ± 0.79
10,CCCCCCCACGAACACACACACATACATACCACATAT [CACACA_site7149],12 ± 1
11,AATAAATAAAAAATTACACACATATTTATAAATATA [CACACA_site7584],9.81 ± 0.028
12,AAGATAAACTTTTTTAATTAATTTAATTTTTTTTTT [GTGCAC_negctrl_site386],9.645 ± 0.035
13,TTATTTATTTTTTATACACACAATTATCTTTTTAAG [CACACA_site6162],9.9 ± 0.11
14,ATATTTATTTAATGAACACACGATATATTATTTTAT [CACACA_site1602],10.01 ± 0.035
15,TCATATAATCAAATATGTACATATTTTCAATTGAAT [XGTACX_site6831],11.3 ± 0.62
16,ATATAATTTGATGGTTAACACACATATATATTATAT [CACACA_site8775],9.945 ± 0.007
17,CACTTCATAAAAATTGCACACATATAATAATGTACA [CACACA_site8692],10.6 ± 0.36
18,ACAATGAAATATTCATGTACATATAAATAATAGTGT [XGTACX_site3762],11.3 ± 0.65
19,ATATAGAATATATTAACATGCAATAAGTAAAGGGGG [TGCATGCA_site1022],11 ± 0.5
20,AAAATGATAATACCAAGTACACATATGAAAAATACA [XGTACX_site6763],11.3 ± 0.83
